{
  "source": "the supplement of paper PMC9446081",
  "note": "In all, about 39,000 compounds went through this assay and about 220 (0.56%) showed activity. Some of the results follow.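 Also: static incubation at 37 °C against the wild-type strain, values averaged over two biological replicates.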",
  "data": [
    {"tested_on": "Escherichia coli K-12 BW25113", "assay": "relative growth (OD600 normalised to plate interquartile mean) (fraction); higher = less growth inhibition, active = 0.2 or less", "conditions": "50 µM; LB; incubation time: overnight (16-24 h)", "values": [
      {"smiles": "Cc1noc(C)c1NC(=O)N(C)C[C@H]1Oc2ccc(NS(=O)(=O)c3c(C)noc3C)cc2C(=O)N([C@H](C)CO)C[C@H]1C", "relative growth": "inactive: 0.998"},
      {"smiles": "C[C@H](CO)N1C[C@H](C)[C@H](CN(C)C(=O)Nc2ccc(F)cc2)Oc2ccc(NS(C)(=O)=O)cc2C1=O", "relative growth": "inactive: 0.935"},
      {"smiles": "C[C@H]1CN([C@@H](C)CO)C(=O)Cc2cc(NC(=O)Nc3ccc(F)cc3)ccc2O[C@H]1CN(C)S(C)(=O)=O", "relative growth": "inactive: 1"},
      {"smiles": "C[C@@H]1CCCCO[C@@H](CN(C)C(=O)Nc2cccc3ccccc23)[C@H](C)CN([C@@H](C)CO)C(=O)c2cc(NS(C)(=O)=O)ccc2O1", "relative growth": "inactive: 1"},
      {"smiles": "Cc1n[nH]c(=O)nc1NC1CC1", "relative growth": "inactive: 0.918"},
      {"smiles": "Cc1ccc(S(=O)(=O)N(C)C[C@@H]2Oc3ccc(NS(=O)(=O)c4c(C)noc4C)cc3C(=O)N([C@H](C)CO)C[C@H]2C)cc1", "relative growth": "inactive: 0.86"},
      {"smiles": "Cc1noc(C)c1NC(=O)Nc1ccc2c(c1)C(=O)N([C@H](C)CO)C[C@H](C)[C@@H](CN(C)Cc1ccc(C(F)(F)F)cc1)OCCCC[C@H](C)O2", "relative growth": "inactive: 0.999"},
      {"smiles": "C[C@H]1CCCCO[C@H](CN(C)S(C)(=O)=O)[C@@H](C)CN([C@@H](C)CO)C(=O)c2cc(NC(=O)c3ccncc3)ccc2O1", "relative growth": "inactive: 1.01"},
      {"smiles": "C[C@H]1CN([C@@H](C)CO)S(=O)(=O)c2ccc(Br)cc2O[C@@H]1CN(C)Cc1cccc(F)c1", "relative growth": "inactive: 1.01"},
      {"smiles": "C[C@H]1CN([C@@H](C)CO)C(=O)c2cccc(NS(=O)(=O)c3ccc(F)cc3)c2O[C@@H]1CN(C)S(=O)(=O)c1ccccc1", "relative growth": "inactive: 0.994"},
      {"smiles": "CCCN(C)C[C@@H]1OCCCC[C@H](C)Oc2ccc(NC(=O)Nc3cccc4ccccc34)cc2C(=O)N([C@H](C)CO)C[C@@H]1C", "relative growth": "inactive: 0.975"},
      {"smiles": "COc1ccccc1CCCCN", "relative growth": "inactive: 0.878"},
      {"smiles": "CC(=O)NC1C(NC(=N)N)C=C(C(=O)O)OC1C(O)C(O)CO", "note": "(centres undefined)", "relative growth": "inactive: 1.09"},
      {"smiles": "C[C@@H]1CN([C@@H](C)CO)C(=O)c2cccc(NC(=O)c3ccncc3)c2O[C@@H]1CN(C)C(=O)Nc1ccc2c(c1)OCO2", "relative growth": "inactive: 1"},
      {"smiles": "COCC#Cc1cnc2c(c1)C(=O)N([C@@H](C)CO)C[C@H](C)[C@@H](CN(C)S(=O)(=O)c1ccccc1)O2", "relative growth": "inactive: 0.978"},
      {"smiles": "CO[C@H]1CN(C)C(=O)c2cc(NS(=O)(=O)CC(F)(F)F)ccc2OC[C@H](C)N(Cc2cccnc2)C[C@@H]1C", "relative growth": "inactive: 0.994"},
      {"smiles": "CCC1(O)C(=O)OCc2c1cc1n(c2=O)Cc2cc3c(CN(C)C)c(O)ccc3nc2-1.Cl", "note": "(centres undefined)", "relative growth": "inactive: 1.09"},
      {"smiles": "C[C@H]1CCCCO[C@@H](CN(C)Cc2ccc3c(c2)OCO3)[C@@H](C)CN([C@@H](C)CO)C(=O)c2cc(NS(=O)(=O)c3cccs3)ccc2O1", "relative growth": "inactive: 0.969"},
      {"smiles": "Cc1ccc(S(=O)(=O)N2C[C@@H](O)COC[C@H]3O[C@@H](CC(=O)N[C@H]4CCN(Cc5ccccc5)C4)CC[C@@H]32)cc1", "relative growth": "inactive: 1.01"},
      {"smiles": "COC(=O)c1c(CC[C@@H](CO)NC(=O)N[C@@H](C)Cn2cc(-c3ccccn3)nn2)oc(C(C)=O)c1C(=O)OC", "relative growth": "inactive: 1.01"},
      {"smiles": "C[C@@H]1CN([C@H](C)CO)C(=O)Cc2cc(NC(=O)CCCCCC(=O)Nc3ccccc3N)ccc2O[C@H]1CN(C)Cc1ccc(C(F)(F)F)cc1", "relative growth": "inactive: 1.03"},
      {"smiles": "CCn1cc(C(=O)O)c(=O)c2cc(F)c(N3CCNCC3)nc21", "relative growth": "active: 0.049"},
      {"smiles": "C[C@@H]1CN([C@H](C)CO)C(=O)c2cccc(NS(=O)(=O)c3ccc(F)cc3)c2O[C@H]1CN(C)C(=O)Nc1ccc(C(F)(F)F)cc1", "relative growth": "inactive: 0.956"},
      {"smiles": "C[C@@H]1CN([C@@H](C)CO)C(=O)c2cc(NC(=O)Nc3ccc4c(c3)OCO4)ccc2O[C@@H](C)CCCCO[C@H]1CN(C)Cc1ccc2c(c1)OCO2", "relative growth": "inactive: 0.909"},
      {"smiles": "Cc1noc(C)c1NC(=O)N(C)C[C@H]1Oc2c(NC(=O)C3CC3)cccc2C(=O)N([C@@H](C)CO)C[C@@H]1C", "relative growth": "inactive: 1.01"},
      {"smiles": "C[C@@H]1CN([C@H](C)CO)C(=O)c2cc(NC(=O)Cc3ccccc3)ccc2O[C@@H]1CN(C)S(=O)(=O)c1cn(C)cn1", "relative growth": "inactive: 0.967"},
      {"smiles": "CC(C)CC#Cc1cnc2c(c1)C(=O)N([C@H](C)CO)C[C@@H](C)[C@H](CN(C)S(=O)(=O)c1cn(C)cn1)O2", "relative growth": "inactive: 1"},
      {"smiles": "C[C@H](CO)N1C[C@H](C)[C@@H](CN(C)C(=O)Nc2ccc(F)cc2)Oc2ccc(NC(=O)Nc3cccc4ccccc34)cc2C1=O", "relative growth": "inactive: 1.01"},
      {"smiles": "CO[C@@H]1CN(C)C(=O)c2ccc(NC(=O)NC3CCCCC3)cc2OC[C@@H](C)N(CCc2ccccc2)C[C@H]1C", "relative growth": "inactive: 1.03"},
      {"smiles": "COc1ccc(NC(=O)Nc2ccc3c(c2)C(=O)N([C@H](C)CO)C[C@@H](C)[C@@H](CN(C)C(=O)c2ccccc2)OCCCC[C@H](C)O3)cc1", "relative growth": "inactive: 1"},
      {"smiles": "C[C@H](CO)N1C[C@H](C)[C@@H](CN(C)CC2CCCCC2)OCCCC[C@H](C)Oc2ccc(NS(=O)(=O)c3cccs3)cc2C1=O", "relative growth": "inactive: 0.989"},
      {"smiles": "COc1ccc(NC(=O)Nc2cccc3c2O[C@H](CN(C)C(=O)Nc2cccc4ccccc24)[C@H](C)CN([C@H](C)CO)C3=O)cc1", "relative growth": "inactive: 0.981"},
      {"smiles": "C[C@H]1CN([C@@H](C)CO)C(=O)Cc2cc(NC(=O)Nc3cccc4ccccc34)ccc2O[C@@H]1CN(C)Cc1ccc(-c2ccccc2)cc1", "relative growth": "inactive: 1"},
      {"smiles": "O=C(C[C@H]1C=C[C@H](NC(=O)CN2CCOCC2)[C@H](CO)O1)NC1CCCCC1", "relative growth": "inactive: 0.997"},
      {"smiles": "COc1ccc(S(=O)(=O)Nc2ccc3c(c2)C(=O)N([C@H](C)CO)C[C@@H](C)[C@H](CN(C)Cc2ccc(C(=O)O)cc2)OCCCC[C@@H](C)O3)cc1", "relative growth": "inactive: 1"},
      {"smiles": "C[C@@H]1CN([C@@H](C)CO)C(=O)c2cc(NC(=O)Nc3ccc(C(F)(F)F)cc3)ccc2O[C@H]1CN(C)Cc1ccncc1", "relative growth": "inactive: 0.948"},
      {"smiles": "C[C@H](CO)N1C[C@H](C)[C@H](CN(C)C(=O)Nc2ccc(C(F)(F)F)cc2)OCCCC[C@H](C)Oc2ccc(NC(=O)Cc3ccccc3)cc2C1=O", "relative growth": "inactive: 0.995"},
      {"smiles": "CC(=O)N1CCN(c2ncnc3nc[nH]c23)CC1", "relative growth": "inactive: 1"},
      {"smiles": "C[C@@H]1CN([C@@H](C)CO)C(=O)c2cc(NS(=O)(=O)c3ccc(Cl)cc3)ccc2O[C@H]1CN(C)S(=O)(=O)c1cn(C)cn1", "relative growth": "inactive: 1.01"},
      {"smiles": "C[C@H](CO)N1C[C@H](C)[C@H](CN(C)C(=O)Nc2ccc3c(c2)OCO3)Oc2ccc(NS(C)(=O)=O)cc2C1=O", "relative growth": "inactive: 1.02"},
      {"smiles": "C[C@@H]1O[C@H]2Oc3c(-c4ccc(O)cc4)oc4cc(O)c(c(O)c4c3=O)-c3cc(ccc3O)/C=C\\C(=O)OC[C@H]3O[C@@H](O[C@H]([C@H]1O)[C@H]2O)[C@H](O)[C@@H](O)[C@@H]3O", "relative growth": "inactive: 0.996"},
      {"smiles": "C[C@H](CO)N1C[C@H](C)[C@@H](CN(C)Cc2ccc3c(c2)OCO3)Oc2ncc(C#CCN(C)C)cc2C1=O", "relative growth": "inactive: 1"},
      {"smiles": "C[C@@H]1CN([C@@H](C)CO)C(=O)c2cc(NC(=O)CCC(F)(F)F)ccc2O[C@@H](C)CCCCO[C@H]1CN(C)C(=O)CCC(F)(F)F", "relative growth": "inactive: 0.991"},
      {"smiles": "C=CCc1ccc(O)c(OC)c1", "relative growth": "inactive: 1.1"},
      {"smiles": "CCCCCN1CC=C[C@@]23O[C@@H]4C=CCOC(=O)[C@@H]4[C@H]2C(=O)N(CCCO)[C@@H]3C1=O", "relative growth": "inactive: 1.04"},
      {"smiles": "CCS(=O)(=O)N1CC[C@]2(CC1)CN([C@H](CO)c1c2c2ccc(cc2n1C)OC)C(=O)c1ccc(cc1)F", "relative growth": "inactive: 1"},
      {"smiles": "COc1cccc(CN(C)C[C@@H]2OCc3ccccc3-c3c(n(C)c4ccccc34)C(=O)N([C@H](C)CO)C[C@@H]2C)c1", "relative growth": "inactive: 1.01"},
      {"smiles": "O=C(C[C@H]1CC[C@@H]2[C@H](COC[C@@H](O)CN2C(=O)Nc2cccc(Cl)c2)O1)NCCCN1CCOCC1", "relative growth": "inactive: 0.916"},
      {"smiles": "O=C(O)[C@H]1CCS(=O)(=O)C1", "relative growth": "inactive: 0.938"},
      {"smiles": "C[C@@H]1CN([C@@H](C)CO)C(=O)c2cc(NC(=O)C3CCCCC3)ccc2O[C@H]1CN(C)Cc1ccc(Oc2ccccc2)cc1", "relative growth": "inactive: 0.982"},
      {"smiles": "Cc1ccc(S(=O)(=O)N2C[C@@H](O)COC[C@@H]3O[C@@H](CC(=O)NCc4ccc5c(c4)OCO5)CC[C@H]32)cc1", "relative growth": "inactive: 1.03"},
      {"smiles": "C[C@@H]1CCCCO[C@@H](CN(C)Cc2ccc(Cl)c(Cl)c2)[C@H](C)CN([C@H](C)CO)C(=O)c2cc(NS(C)(=O)=O)ccc2O1", "relative growth": "inactive: 1.01"},
      {"smiles": "C[C@@H]1CN([C@H](C)CO)C(=O)c2cc(NC(=O)Nc3ccc4c(c3)OCO4)ccc2O[C@H]1CN(C)C(=O)Nc1cccc2ccccc12", "relative growth": "inactive: 1.01"},
      {"smiles": "C[C@@H]1CCCCO[C@@H](CN(C)CC2CCCCC2)[C@@H](C)CN([C@H](C)CO)C(=O)c2cc(NC(=O)c3ccncc3)ccc2O1", "relative growth": "inactive: 0.984"},
      {"smiles": "CC[C@@]1(O)C[C@H](O[C@H]2C[C@H](N(C)C)[C@H](O[C@H]3C[C@H](O)[C@H](O[C@H]4CCC(=O)[C@H](C)O4)[C@H](C)O3)[C@H](C)O2)c2c(cc3c(c2O)C(=O)c2c(O)cccc2C3=O)[C@H]1C(=O)OC", "relative growth": "inactive: 1.01"},
      {"smiles": "CCNc1nc(SCC(N)=O)nc(N2CCOCC2)n1", "relative growth": "inactive: 1.03"},
      {"smiles": "CO[C@H]1CN(C)C(=O)c2cc(NC(C)=O)ccc2OC[C@H](C)N(S(=O)(=O)c2cn(C)cn2)C[C@H]1C", "relative growth": "inactive: 0.981"},
      {"smiles": "Cc1noc(C)c1NC(=O)N(C)C[C@H]1Oc2ccc(NS(=O)(=O)c3cccs3)cc2CC(=O)N([C@H](C)CO)C[C@@H]1C", "relative growth": "inactive: 0.991"},
      {"smiles": "C[C@H](CO)N1C[C@H](C)[C@@H](CN(C)C(=O)c2ccncc2)Oc2ncc(C#CC3CCCCC3)cc2C1=O", "relative growth": "inactive: 0.995"}
    ]}
  ]
}
